Experimental data: PubChem BioAssay AID488969 (Vanderbilt High Throughput Screening Facility, 2010)
Over roughly 110,000 compounds, “z-score” has its median near -0.1; the highest 2% begin near 2. This is one part of the list.

Each molecule was assayed against Metabotropic glutamate receptor 8 (Rattus norvegicus) (UniProt P70579) (assay: rat mGluR8 modulators via GIRK flux, primary screen, cell-based, thallium flux, HTS (AID 488969)). Conditions: HEK293 rat mGluR8, GIRK (G protein-gated inwardly rectifying potassium channel) thallium flux, FluoZin2; at 10 µM; stronger effect = higher value; submaximal glutamate (EC20) added with thallium.
Chain of UniProt P70579 (P70579 whole entry, looked up): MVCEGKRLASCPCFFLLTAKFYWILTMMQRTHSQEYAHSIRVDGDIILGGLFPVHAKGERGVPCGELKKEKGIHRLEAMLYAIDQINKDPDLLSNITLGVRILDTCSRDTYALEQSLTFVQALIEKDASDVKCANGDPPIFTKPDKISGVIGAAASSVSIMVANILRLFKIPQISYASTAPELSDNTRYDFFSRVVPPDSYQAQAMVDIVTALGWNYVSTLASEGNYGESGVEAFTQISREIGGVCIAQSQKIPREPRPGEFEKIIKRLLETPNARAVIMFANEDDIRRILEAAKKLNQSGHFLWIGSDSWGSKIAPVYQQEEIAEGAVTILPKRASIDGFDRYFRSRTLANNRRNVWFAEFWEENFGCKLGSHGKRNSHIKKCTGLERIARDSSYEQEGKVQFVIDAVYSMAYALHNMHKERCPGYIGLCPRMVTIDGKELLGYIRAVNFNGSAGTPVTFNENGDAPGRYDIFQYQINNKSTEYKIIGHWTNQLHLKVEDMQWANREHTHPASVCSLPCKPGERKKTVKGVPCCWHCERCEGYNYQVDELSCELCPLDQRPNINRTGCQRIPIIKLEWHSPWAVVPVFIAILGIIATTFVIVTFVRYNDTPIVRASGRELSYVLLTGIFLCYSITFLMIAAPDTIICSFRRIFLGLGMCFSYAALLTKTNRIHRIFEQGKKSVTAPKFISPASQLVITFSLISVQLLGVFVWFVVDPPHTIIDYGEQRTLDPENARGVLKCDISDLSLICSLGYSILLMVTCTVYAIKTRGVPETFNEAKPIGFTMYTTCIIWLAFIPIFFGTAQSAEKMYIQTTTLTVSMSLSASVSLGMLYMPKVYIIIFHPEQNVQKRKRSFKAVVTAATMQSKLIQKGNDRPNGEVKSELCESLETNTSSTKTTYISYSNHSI
In the case of `CCc1ccccc1NC1=NCC(=O)N1Cc1ccc2c(c1)OCO2`, the z-score is reported as -0.665.
For `CC(O)c1cc2c(cc1NC(=O)c1cnn3c1NC(c1ccco1)CC3C(F)(F)F)OCO2` (stereo not given), the z-score was 0.0106.
`CN(c1ccc(OCC(=O)Nc2nc(-c3ccccc3)cs2)cc1)S(=O)(=O)c1ccc(F)cc1` showed a z-score of -0.22.
`CCOC(=O)N1CCC(N(CCN(C)C)C(=S)Nc2cc(C)ccc2C)CC1` gave a z-score of 0.0331.
`COc1ccccc1Cn1c(/C=C/c2ccccc2)nc2ccccc21` was tested, and the z-score was -0.184.
`Cc1cc2c(c(=O)n1Cc1cccnc1)C(c1cccs1)C(C#N)=C(N)O2` (stereo not given) was tested, and the z-score was -0.39.
Molecule `CC1=C(C(=O)OC(C)C)C(c2cccs2)N2C(=O)CCSC2=N1` (stereo not given) has a z-score of -1.69.
`OCCN1CCOCCN(CCO)CCN(CCO)CC1` showed a z-score of -0.593.
`COc1cccc(-c2nnc(SCC(=O)Nc3cc(C)on3)o2)c1` showed a z-score of -1.2.
With `Cc1ccc(NC(=O)/C(C#N)=C/c2ccc(C)s2)c(C)c1` the z-score was -0.194.
`Fc1ccc(N/N=C/c2ccncc2)c(F)c1` gave a z-score of -0.159.
With `Cc1ccc(-n2c(Cc3cccn3C)nnc2SCC(N)=O)cc1` the z-score was 0.107.
`O=C(CCCSc1nnc(-c2cccs2)n1CC1CCCO1)c1ccccc1` (stereo not given) was tested, and the z-score was -0.131.
`CCCn1c(NCc2ccccn2)nc2ccccc21` showed a z-score of -0.233.
Work on `CN=C1C([N+](=O)[O-])=CC=C2C1=NC1(CCCCC1)N2O` yielded a z-score of 0.118.
`Cc1cc(-c2ccc(/C=N/n3cnnc3)o2)c([N+](=O)[O-])cc1C` showed a z-score of -2.76.
In the case of `CCOC(=O)NS(=O)(=O)c1ccc(CCNC(=O)c2cc(C)on2)cc1`, the z-score is reported as -0.044.
`CCOc1ccc(/C=N/NC(N)=S)cc1` showed a z-score of -0.00516.
In the case of `CC(C)n1c(SCCCc2ccccc2)nc2c1c(=O)[nH]c(=O)n2C`, the z-score is reported as -0.172.
With `CCCSc1cc(=O)n(-c2ccccc2)nc1C(=O)OCC` the z-score was -0.0657.
With `O=C(NCc1cccs1)c1cccc(N2CCCC2=O)c1` the z-score was 0.00525.
Molecule `O=C(NCC1CCCO1)c1ccc2ccccc2n1` (stereo not given) has a z-score of 0.0317.
`Cc1nc2ccccc2nc1OCc1ccccc1` was tested, and the z-score was -0.0133.
Molecule `O=C(c1cc2ccccc2oc1=O)N(Cc1cccs1)Cc1cccs1` has a z-score of -0.503.
For `Cc1ccc2nsnc2c1S(=O)(=O)N(Cc1ccco1)Cc1cc2ccc(C)c(C)c2[nH]c1=O`, the z-score was 0.0235.
Molecule `CCN(CC)C(=O)N1c2ccccc2CC(N(CC)CC)c2ccccc21` (stereo not given) has a z-score of 0.421.
For `COc1ccc(Cc2nc(-c3ccc(NC(=O)c4cccnc4)cc3)no2)cc1`, the z-score was -0.000464.
For `O=C(C1CCN(S(=O)(=O)c2cccc3cccnc23)CC1)N1CCc2ccccc21`, the z-score was -0.168.
`COc1ccccc1NC(=S)N1CCN(Cc2ccccc2)CC1` showed a z-score of -0.233.
Work on `CCN(CC)C(=O)Oc1ccc(Cl)c2ccccc12` yielded a z-score of -0.211.
`COc1ccnc(Oc2ccccc2)c1C(=O)N/C=N/OCc1ccc(F)cc1Cl` gave a z-score of -0.167.
`Cc1ccc(Cn2ncc3c(N4CCN(Cc5ccc(Cl)cc5)CC4)ncnc32)cc1` gave a z-score of -1.19.
Work on `Cc1ccc(C)c(/C=N/NC(=S)NCCc2ccccc2)c1` yielded a z-score of 1.17.
In the case of `Cc1ccc2c(c1)C(C)(C)[C@]1(C)NC(=O)CCN21`, the z-score is reported as -0.00344.
In the case of `COc1ccc(NC(=O)C2CCN(c3nnnn3-c3ccccc3)CC2)cc1`, the z-score is reported as 0.337.
With `O=[N+]([O-])c1cc(-c2ccc(/C=N/c3nc4ccccn4c3-c3ccco3)o2)ccc1Cl` the z-score was 0.0934.
Molecule `Cc1nc2ncnn2c(C)c1CCC(=O)NC(C)CCc1ccco1` (stereo not given) has a z-score of 0.104.
`Cc1ccc(OCC(=O)N2CCN(C(=O)c3cccs3)CC2)cc1` was tested, and the z-score was -0.388.
`O=C1CCC/C(=N\NC(=O)c2ccc(COc3cccc4cccnc34)cc2)C1` showed a z-score of -0.787.
`CCOc1ccc(C(=O)OC2CCN(C)CC2)cc1` gave a z-score of 0.105.
Work on `Cc1cccc(C(=O)NC2CCN(C(=S)NCc3ccco3)CC2)c1` yielded a z-score of -0.0881.
`O=C(CNS(=O)(=O)c1ccc(Br)s1)N1CCN(C(=O)c2ccco2)CC1` showed a z-score of 0.666.
In the case of `CSc1ccc(/C=N/NC(=O)CN2CCN(Cc3ccc(Cl)cc3)CC2)cc1`, the z-score is reported as -0.189.
Molecule `O=C(CSc1nc(-c2ccccc2)c(-c2ccccc2)o1)Nc1nnc(-c2ccccc2)s1` has a z-score of 0.0761.
`Cc1cccc(NC(=O)COC(=O)c2cccc3c2C(=O)c2ccccc2C3=O)c1C` gave a z-score of -0.309.
`Nc1c(C(=O)Nc2ccc(S(=O)(=O)N3CCCC3)cc2)sc2nc3ccc(OC(F)(F)F)cc3cc12` was tested, and the z-score was -0.057.
`O=C(COC(=O)C(Cc1ccccc1)NC(=O)c1ccco1)NC1CC1` (stereo not given) gave a z-score of -0.319.
Work on `Nc1nonc1NC(=O)NN=C1CCCCC1` yielded a z-score of 0.00773.
With `Cc1ccc(N/N=C(\Cc2nc3ccccc3[nH]2)c2ccccc2)cc1` the z-score was -0.101.
In the case of `COC(=O)C1=C(C)NC(=O)CC1c1ccc(F)c(Br)c1` (stereo not given), the z-score is reported as -0.419.
For `O=C(Nc1cc(C(F)(F)F)ccc1-n1cnc2ccccc21)c1ccccc1`, the z-score was 0.55.
`CCCCS(=O)(=O)NC1=NCN(CCO)CN1` was tested, and the z-score was -0.0897.
In the case of `CN(C1CCCCC1)S(=O)(=O)c1ccc(NC(=O)CCC(=O)O)cc1`, the z-score is reported as -0.335.
`Cc1cc(C)nc(NS(=O)(=O)c2ccc(Br)cc2)n1` was tested, and the z-score was -0.00295.
Molecule `CCCS(=O)(=O)N1CCC(C(=O)N2CCc3ccccc3C2)CC1` has a z-score of 0.195.
Work on `CCOC(=O)Cc1csc(NC(=O)CCCN2C(=O)c3ccccc3C2=O)n1` yielded a z-score of -0.155.
`CCS(=O)(=O)N1CCN(C(=O)c2cccs2)CC1` showed a z-score of -0.0769.
With `O=C(CCN1CCN(CCO)CC1)Nc1ccc(OCc2ccccc2)cc1` the z-score was 0.401.
For `O=C(CNC(=O)c1cccc(F)c1)N/N=C/c1ccc(O)c([N+](=O)[O-])c1`, the z-score was 0.115.
In the case of `CCCCCn1c(C(Cc2ccccc2)NC(=O)COC)nc2ccccc21` (stereo not given), the z-score is reported as -0.00692.
`C/C=C/CSc1nc2c(c(=O)[nH]c(=O)n2C)n1Cc1ccc(C)cc1` showed a z-score of -0.177.
Molecule `CCOc1cc(C(=O)OCC(=O)c2c(C)[nH]c3ccccc23)ccc1OCC(=O)N1CCOCC1` has a z-score of -0.335.
`CCOC(=O)c1nnn(-c2nonc2-n2cccc2)c1CCl` gave a z-score of -0.253.
For `O=C(O)CSc1c2c(nc3cc(C(=O)N4CCOCC4)ccc13)CCCC2`, the z-score was -0.0589.
`CCC(C)NC(=O)CSc1nnc(-c2ccncc2)n1-c1ccc(OC)cc1` (stereo not given) gave a z-score of -1.15.
In the case of `COc1ccc(C)cc1NC(=O)CN1CCN(C/C=C/c2ccccc2)CC1`, the z-score is reported as -0.172.
For `CCN(CC)c1ccc(NC(=O)c2ccccc2)cc1S(=O)(=O)Nc1ccccc1OC`, the z-score was -0.252.
With `CCc1nnc(NC(=O)CSc2nnc(CNc3ccc(OC)cc3)n2C)s1` the z-score was -0.289.
`CC(C(=O)N1CCCCC1)N1C(=O)c2ccccc2C1=O` (stereo not given) gave a z-score of 0.184.
For `Cc1nnc2n(c1=O)C(CS(=O)(=O)c1ccccc1)CS2` (stereo not given), the z-score was -0.0882.
